From PubChem BioAssay
The shares of active, inactive and inconclusive entries below differ from those in the screen. Calls of active or inactive are those of the source.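 How the source made its calls: active means cell viability at or below a set limit in both duplicate runs, the limit being the all-compound median minus 4 SD (cut at about 23% in these data, passing the limit was not always enough); inconclusive means no clear call, values can overlap the other calls; inactive means the rest.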

Assay: viability of HCT116 without oncogenic beta-catenin – human colon tumor cells, pilot screen (AID 823);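 further: 0% = wells killed by 20 µM Hyamine and 100% = untreated DMSO cell wells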
Settings: HCT116 beta-catenin knockout viability, CellTiter-Glo, 60 h; at 10 µM; stronger effect = lower value

| SMILES | viability |
| --- | --- |
| COc1ccccc1CNC(=O)CCS(=O)(=O)c1cccs1 | inconclusive: 92.5% |
| CCOc1ccc(NC(=O)C2C3C=CC4(CN(C(C(=O)OC)C(C)C)C(=O)C24)O3)cc1 (stereo not given) | inactive: 108% |
| CCOC(=O)c1ccc(NC(=O)N(CC)CC)cc1 | inconclusive: 106% |
| CN1CCc2c(sc(NC(=O)c3ccc(S(=O)(=O)N4CCOCC4)cc3)c2C(N)=O)C1 | inactive: 111% |
| O=C1c2ccccc2CCC1C(O)c1ccccn1 (stereo not given) | inactive: 95.5% |
| CCOc1ccc(-c2nnc(N(CC)C(=O)C3CCC3)s2)cc1 | inconclusive: 89.6% |
| CC1CC(C)CN(C(=O)CSc2nnc(-c3ccc(F)cc3)o2)C1 (stereo not given) | inactive: 94.5% |
| CCN1C=C(C(=O)OC)C(c2cccc(C)c2)C(C(=O)OC)=C1 | inconclusive: 96.2% |
| COc1cc(/C=N/n2cnnc2)ccc1OC(=O)c1cccnc1 | inconclusive: 100% |
| CCC(C)(C(=O)NC1CCCC1)N(C(=O)CNC(C)=O)c1ccccc1 (stereo not given) | inconclusive: 92.5% |
| O=c1c2c(nc3c(-c4ccccc4)c[nH]n13)CCCC2 | inconclusive: 56.6% |
| CCC(=O)Nc1nc2ccccc2n1CCN1CCOCC1 | inactive: 98.6% |
| O=C(NC1CC1)c1ccc(CS(=O)(=O)c2c(Cl)cccc2Cl)o1 | inactive: 105% |
| CCSc1nc2ccccc2n1CC(=O)N1CCOCC1 | inconclusive: 106% |
| CN(CCNC(=O)c1cc2c(=O)n(C)c3ccccc3c2n1C)Cc1ccccc1 | inconclusive: 24.5% |
| O=C(Oc1c(Cl)cc(Cl)c2cccnc12)N1CCCCC1 | inconclusive: 81.4% |
| O=C(CSc1nc2c(c(=O)n1-c1ccc(Cl)cc1)SCC2)N1CCCC1 | inconclusive: 103% |
| N#CCn1c(C2CCCCC2)nc2ccccc2c1=O | inactive: 90.2% |
| Nc1ccc(Nc2ccccc2)c(Cl)c1 | inactive: 94.7% |
| CN(CC1CCCO1)S(=O)(=O)c1ccc(C(=O)Nc2nc3cc4c(cc3s2)OCO4)cc1 (stereo not given) | inconclusive: 24.4% |

| SMILES | viability |
| --- | --- |
| CC(=O)NCCOC(=O)Nc1ccncc1 | inconclusive: 94.8% |
| COc1ccc(OC(C)C(=O)Nc2cccc(OC)c2)cc1 (stereo not given) | inconclusive: 103% |
| COc1cccc(C2CC(c3ccccc3OC)n3ncnc3N2)c1 (stereo not given) | inactive: 90.1% |
| COC(=O)C1=C(C)NC2=C(C(=O)CC(c3cccs3)C2)C1c1ccsc1 (stereo not given) | inconclusive: 52.7% |
| CCOC(=O)N1CCN(C(=O)c2oc3ccc(S(=O)(=O)N4CC(C)CC(C)C4)cc3c2C)CC1 (stereo not given) | inconclusive: 34.3% |
| Cn1cnnc1SCC(=O)c1ccco1 | inconclusive: 96% |
| CCOC(=O)N1CCN(C(=O)C2CCN(Cc3nc(-c4ccccc4C)oc3C)CC2)CC1 | inactive: 85.3% |
| O=C(CCn1nnc2ccccc21)N1CCC(O)(c2cccc(F)c2)CC1 | inconclusive: 98.8% |
| Cc1cccnc1NC(=O)c1c(O)c2ccccc2n(C)c1=O | inactive: 92% |
| CCNc1ccc(C(=O)OCC)cc1NC(=O)c1cc(S(=O)(=O)N2CCOCC2)ccc1C | inconclusive: 92.9% |
| CC(Oc1ccc(Cl)cc1Cl)C(=O)NCc1ccncc1 (stereo not given) | inconclusive: 95.1% |
| CCn1cc(S(=O)(=O)CC(=O)NC2CCCCC2)c2ccccc21 | inconclusive: 105% |
| O=C1c2ccccc2C(=O)N1CSc1nnnn1-c1ccccc1 | inconclusive: 93.1% |
| CCOCCOCN(C#N)c1nc(OC)nc(N(C)C)n1 | inactive: 102% |
| Fc1cccc(Cl)c1CSc1ncn[nH]1 | inconclusive: 99.8% |
| CC1(C)Cc2c(C#N)c(N3CCCC3)nc(-c3ccco3)c2CO1 | inactive: 90.3% |
| COc1ccc(OC)c(N(CC(=O)Nc2ccc3c(c2)OCO3)S(=O)(=O)c2ccccc2)c1 | inconclusive: 76.5% |
| O=C(c1ccco1)c1n[nH]nc1-c1ccccc1 | inconclusive: 116% |
| CCn1cc(C(=O)NCCCOC)c2cc(OC)c(OC)cc2c1=O | inconclusive: 106% |
| COc1ccc(N2C(=O)CCC(C(=O)N3CCCCCC3)C2c2ccc(OC)c(OC)c2)cc1 (stereo not given) | inconclusive: 94.2% |
